The source of these data is the supplement of paper PMC10126150.

The test system of the series is ATP. Nature of the series: switch fluorescence ratio, 500 uM ATP over buffer (Cy3 cluster intensity, sum of 5 cycles each) (fold (ratio)); higher = stronger signal-on switching upon ATP binding; sequences stand for … in TCGTCGGCAGCGTCAGATGTGTATAAGAGACAGTTTTTTTTTTTTTTTTTTTTTTTTT…TC. To be noted: aptamer strand: ATP DNA aptamer (quencher-CACCTGGGGGAGTATTGCGGAGGAAGG + anchor), 100 nM annealed; ATP concentration: 500 uM; one replicate. Summed up: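 For every switch-domain sequence, the fluorescence ratio is the mean of per-cluster values, each being summed target-cycle Cy3 intensity over summed buffer-cycle Cy3 intensity. Clusters outside 100-1000 RFU were excluded. On a modified Illumina MiSeq flow-cell, the Cy3-labelled switching-strand clusters were annealed to 100 nM quencher-labelled ATP aptamer, imaged in selection buffer and then after 15 min with 500 uM ATP at 22 °C. Five such cycles were run, with NaOH stripping and re-annealing between them.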

Sequences with one replicate were seen in a single cluster, so their values are uncertain.
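Also: ATP exposure 15 min at 22 °C before imaging.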

In the case of GGCGGAAATT, the switch fluorescence ratio came to 0.95.
In the case of TTTCGGATT it was 1; in that of GTCACCCGCA, 1.36; in that of GGTGAATCTA, 0.983.
In the case of CCTGGCCATA it was 1.22.
TTGTTGTTTC: the switch fluorescence ratio worked out at 1.04.
In the case of GGGCTGTACG it was 1.03.
For GAAGTCTATC the value was 0.979.
In the case of GCCGTCGTTC it was 0.974; in that of GCTGTGTGCA, 1.01.
On to ACCAGTTGCA, for which the switch fluorescence ratio was 1.03.
In the case of GAAGGCTGCA it was 1; in that of ATGGGTGCCC, 1.01.
Consider ATGCAAAATT, for which the switch fluorescence ratio was 1.01.
In the case of ATATGGCGCG it was 0.918.
In the case of TTGACGTTCG it was 1.18.
In the case of GATCACGGTA it was 1.06.
TCACAGAGCG: the switch fluorescence ratio amounted to 0.996.
For the sequence TTATTTCT, the switch fluorescence ratio is 1.01.
In the case of GAATGCGGGG it was 1.04; in that of AGTAGGGTAA, 0.971.
In the case of ATGAACGCGA it was 1.08.
In the case of ATCCGGTCTG, the switch fluorescence ratio was 1.06.
For AATGGCTTCT the value was 1; for AGGGCGATGC, 1.13.
For GAGATTTCAC the value was 0.986; for TTACGCAAAA, 1.17; for AATCTAATAA, 0.986.
For ACATTTAACT the value was 1.04; for CAGGGAGGTA, 1.06.
For the sequence TCTATACCTT, the switch fluorescence ratio came out at 1.17.
For ATCTAGCTTT the value was 0.961; for AGCGAGATGG, 1.04; for AAGTGGAAAC, 1.01.
For GAAGTCTAGT the value was 0.944; for TGGGGGACCG, 0.976.
For TTGGGGGCCG the value was 0.971; for GTGTTACGTA, 1.05; for ACTTTAAAGT, 1.07.
Take ATTGTTCCTG: the switch fluorescence ratio was determined as 0.987.
For AAGGGTCATC the value was 0.979; for GGGATCGGGC, 0.958.
For GGTACTGGAT the value was 1.01.
In the case of CACGTTTATG it was 0.954; in that of ACCCTCAGGC, 1.16.
Take TGCAACATTT: the switch fluorescence ratio turned out to be 1.01.
For AGGGCTTT the value was 0.965; for CATCGTGTTG, 1.03.
For CGTTGCAAAT the value was 1.01.
In the case of CTTCTTTAGC it was 1; in that of AAGTTCGCCG, 0.98; in that of CGCGGTGTAT, 1.01.
Turning to CCAACGGTAC, the switch fluorescence ratio amounted to 3.87.
In the case of AACTTGGTCT it was 0.992; in that of AACCGACGCT, 3.97; in that of ACCGATCGCC, 1.91.
In the case of CGTATGATGC it was 0.925; in that of TGGTCCAACG, 0.991; in that of ATACCCGCAA, 4.79.
In the case of GGACATCGAA it was 0.993; in that of AGTCTTAAGA, 0.942; in that of CTTGATGCT, 0.978.
Take TCCTCATCGG: the switch fluorescence ratio was found to be 1.08.
In the case of AGGAATCGAC, the switch fluorescence ratio was determined as 1.01.
In the case of TAAACGCCCC it was 1.26.
For the sequence TTAAACATTG, the switch fluorescence ratio was determined as 1.
For CCAGGAATGT the value was 1.01; for CGCAAACCCG, 1.63.
For CAAATTAATC the value was 0.966; for AAGTGGGTGC, 1.02.
In the case of CACGAGTAGT it was 1.02; in that of TTTAGGCCCT, 1.01; in that of CTGTGTGCGA, 1.05.
On to TGGGGTCTTA, for which the switch fluorescence ratio came out at 1.07.
As for GGGGCTATT, the switch fluorescence ratio came to 1.01.
Regarding CGCTATTGAG, the switch fluorescence ratio worked out at 1.01.
In the case of CGGTCCGCTA it was 2.11.
On to TACCCCCTGG, for which the switch fluorescence ratio amounted to 1.11.
For ATGGTTTCCA the value was 1.06.
